Some of the results follow.

First the molecules themselves.
B1: PhoQ; a variant is named by its letters at X, in order, P23837 (parent)
chain: MKKLLRLFFPLSLRVRFLLATAAVVLVLSLAYGMVALIGYSVSFDKTTFRLLRGESNLFYTLAKWENNKLHVELPENIDKQSPTMTLIYDENGQLLWAQRDVPWLMKMIQPDWLKSNGFHEIEADVNDTSLLLSGDHSIQQQLQEVREDDDDAEMTHSVAVNVYPATSRMPKLTIVVVDTIPVELKSSYMVWSWFIYVLSANLLLVIPLLWVAAWWSLRPIEALAKEVRELEEHNRELLNPATTRELTSLVRNLNRLLKSERERYDKYRTTLTDLTHSLKTPLXXLQXXLRSLRSEKMSVSDAEPVMLEQISRISQQIGYYLHRASMRGGTLLSRELHPVAPLLDNLTSALNKVYQRKGVNISLDISPEISFVGEQNDFVEVMGNVLDNACKYCLEFVEISARQTDEHLYIVVEDDGPGIPLSKREVIFDRGQRVDTLRPGQGVGLAVAREITEQYEGKIVAGESMLGGARMEVIFGRQHSAPKDE

The variants in this assay derive from B1. The experiment in a line: enrichment ratio after two sorts for PhoP signalling (ratio (wild type AVST 3.29)); higher = more functional. To be noted: with PhoP (E. coli).
In the case of NIMY, the enrichment ratio is ≤ 0.25.

In the case of SNII, the enrichment ratio worked out at 2.62.

With DLLL, the enrichment ratio is ≤ 0.25.

For the variant GEIA, the enrichment ratio came out at 1.92.

For the variant LATF, the enrichment ratio was ≤ 0.25.

Regarding EAKV, the enrichment ratio is ≤ 0.25.

Turning to IEKP, the enrichment ratio is ≤ 0.25.

As to KGIC, the enrichment ratio is ≤ 0.25.

Take TRWA: the enrichment ratio is ≤ 0.25.

As to SLWC, the enrichment ratio is ≤ 0.25.

As for KPFD, the enrichment ratio was ≤ 0.25.

Regarding QDNP, the enrichment ratio was ≤ 0.25.

On to RTCE, for which the enrichment ratio was ≤ 0.25.

As to PYHH, the enrichment ratio was ≤ 0.25.

Take DSDC: the enrichment ratio was ≤ 0.25.

In the case of IKGW, the enrichment ratio is ≤ 0.25.

As for LISF, the enrichment ratio is ≤ 0.25.

Turning to TFIA, the enrichment ratio is ≤ 0.25.

In the case of HDGI, the enrichment ratio is ≤ 0.25.

AKHV: the enrichment ratio is ≤ 0.25.

Take YTME: the enrichment ratio was ≤ 0.25.

For the variant IHET, the enrichment ratio is ≤ 0.25.

In the case of DYDQ, the enrichment ratio is ≤ 0.25.

As to MVIA, the enrichment ratio was ≤ 0.25.

As for PFGP, the enrichment ratio was ≤ 0.25.

For LLYF, the enrichment ratio is ≤ 0.25.

Regarding KAID, the enrichment ratio is ≤ 0.25.

On to IENQ, for which the enrichment ratio was ≤ 0.25.

On to DEWN, for which the enrichment ratio was ≤ 0.25.

FYWH: the enrichment ratio was ≤ 0.25.

For the variant DNDM, the enrichment ratio is ≤ 0.25.

Regarding GIML, the enrichment ratio is 8.24.

On to LWEK, for which the enrichment ratio is ≤ 0.25.

In the case of MHEE, the enrichment ratio is ≤ 0.25.

Take DMNR: the enrichment ratio is ≤ 0.25.

In the case of SHMQ, the enrichment ratio was determined as 5.56.

On to MSFY, for which the enrichment ratio is 12.3.

In the case of KTLD, the enrichment ratio is ≤ 0.25.

Take KAIT: the enrichment ratio was ≤ 0.25.

For the variant VMLC, the enrichment ratio is ≤ 0.25.

For TEFV, the enrichment ratio worked out at 8.47.

As to PKSS, the enrichment ratio is ≤ 0.25.

On to QANL, for which the enrichment ratio was ≤ 0.25.

With RCVH, the enrichment ratio was ≤ 0.25.

For ICEW, the enrichment ratio was ≤ 0.25.

As to IMDR, the enrichment ratio is ≤ 0.25.

On to VEFI, for which the enrichment ratio is ≤ 0.25.

For VSKT, the enrichment ratio is ≤ 0.25.

As to NKQY, the enrichment ratio was ≤ 0.25.

For GRIS, the enrichment ratio is ≤ 0.25.

Take PTNH: the enrichment ratio was ≤ 0.25.

Regarding FTWP, the enrichment ratio is ≤ 0.25.

As to YERD, the enrichment ratio is ≤ 0.25.

Consider PWLC, for which the enrichment ratio is ≤ 0.25.

Consider PQRN, for which the enrichment ratio was ≤ 0.25.

For TQAY, the enrichment ratio was determined as 17.

With NDQG, the enrichment ratio was ≤ 0.25.

Take QVRN: the enrichment ratio is ≤ 0.25.

For MKHC, the enrichment ratio was ≤ 0.25.

With YPWY, the enrichment ratio was ≤ 0.25.

For the variant MMVI, the enrichment ratio was ≤ 0.25.

Turning to FVVH, the enrichment ratio is ≤ 0.25.

For the variant NNGQ, the enrichment ratio is ≤ 0.25.

Regarding VEFW, the enrichment ratio is ≤ 0.25.

With HVWQ, the enrichment ratio is ≤ 0.25.

FDMH: the enrichment ratio is ≤ 0.25.

As to YSSI, the enrichment ratio was 0.437.

Turning to IFVF, the enrichment ratio was ≤ 0.25.

As to PAIR, the enrichment ratio is ≤ 0.25.

For the variant IQQK, the enrichment ratio is ≤ 0.25.

Turning to ADHP, the enrichment ratio was ≤ 0.25.

Turning to WMQF, the enrichment ratio is ≤ 0.25.

Turning to SVPY, the enrichment ratio was ≤ 0.25.

Regarding NKSM, the enrichment ratio was ≤ 0.25.

As for GPAC, the enrichment ratio was ≤ 0.25.

For the variant NTVT, the enrichment ratio is ≤ 0.25.

Take HQME: the enrichment ratio is ≤ 0.25.

Consider TGME, for which the enrichment ratio is ≤ 0.25.

Turning to YVTC, the enrichment ratio came out at 0.38.

As for AADI, the enrichment ratio is ≤ 0.25.

NMTL: the enrichment ratio is ≤ 0.25.

In the case of IFHR, the enrichment ratio is ≤ 0.25.

Take SWRA: the enrichment ratio is ≤ 0.25.

Regarding RPNI, the enrichment ratio was ≤ 0.25.

LYNK: the enrichment ratio is ≤ 0.25.

NDQL: the enrichment ratio was ≤ 0.25.

For the variant RKRT, the enrichment ratio was ≤ 0.25.

On to IDDS, for which the enrichment ratio is ≤ 0.25.

With RTEH, the enrichment ratio is ≤ 0.25.

Take VFWQ: the enrichment ratio was ≤ 0.25.

As to SPTW, the enrichment ratio was ≤ 0.25.

On to TYRG, for which the enrichment ratio is ≤ 0.25.

WSRW: the enrichment ratio is ≤ 0.25.

Consider WSAE, for which the enrichment ratio is ≤ 0.25.

On to NRED, for which the enrichment ratio is ≤ 0.25.

With WMRF, the enrichment ratio was ≤ 0.25.

On to QQYC, for which the enrichment ratio was ≤ 0.25.

Consider DMEL, for which the enrichment ratio is ≤ 0.25.

For the variant MVMS, the enrichment ratio is ≤ 0.25.

As for HTPC, the enrichment ratio is ≤ 0.25.

HSVG: the enrichment ratio is ≤ 0.25.

As for SWAK, the enrichment ratio was ≤ 0.25.

Take QEHL: the enrichment ratio stood at 4.43.

In the case of IGKI, the enrichment ratio is ≤ 0.25.

On to SRTQ, for which the enrichment ratio was ≤ 0.25.

Turning to IKRP, the enrichment ratio is ≤ 0.25.

On to WSNW, for which the enrichment ratio was ≤ 0.25.

As to AAYF, the enrichment ratio was ≤ 0.25.

As to SALI, the enrichment ratio is 12.2.

FKGD: the enrichment ratio is ≤ 0.25.

Take SMMN: the enrichment ratio was 19.5.

Take EADC: the enrichment ratio was ≤ 0.25.

For YHHY, the enrichment ratio was ≤ 0.25.

Take HCNP: the enrichment ratio is ≤ 0.25.

On to STDS, for which the enrichment ratio was ≤ 0.25.

As to AFQS, the enrichment ratio is ≤ 0.25.

Consider QYMW, for which the enrichment ratio is ≤ 0.25.

In the case of MCAV, the enrichment ratio came to 9.16.

For AGAQ, the enrichment ratio worked out at 1.95.

As to RMLF, the enrichment ratio was ≤ 0.25.

As for WDAW, the enrichment ratio was ≤ 0.25.

As to GPPV, the enrichment ratio is ≤ 0.25.

In the case of IPGD, the enrichment ratio was ≤ 0.25.

Turning to GNNY, the enrichment ratio is ≤ 0.25.

As for HFNQ, the enrichment ratio was ≤ 0.25.

For STYM, the enrichment ratio worked out at 0.458.

NNCR: the enrichment ratio is ≤ 0.25.

Take MGCT: the enrichment ratio is ≤ 0.25.

In the case of VVRM, the enrichment ratio was ≤ 0.25.

As for ENRA, the enrichment ratio was ≤ 0.25.

Regarding SFDH, the enrichment ratio was ≤ 0.25.

Turning to GGWF, the enrichment ratio is ≤ 0.25.

Turning to SIGR, the enrichment ratio came out at 1.85.

Take VFDT: the enrichment ratio is ≤ 0.25.

Turning to SETQ, the enrichment ratio turned out to be 8.7.

As for KHAM, the enrichment ratio was ≤ 0.25.

Regarding NPGR, the enrichment ratio is ≤ 0.25.

With WHCN, the enrichment ratio is ≤ 0.25.

As for PNRW, the enrichment ratio was ≤ 0.25.

Consider YPEQ, for which the enrichment ratio is ≤ 0.25.

DNYL: the enrichment ratio is ≤ 0.25.

As for PDSW, the enrichment ratio was ≤ 0.25.

On to RHTD, for which the enrichment ratio was ≤ 0.25.

With EANR, the enrichment ratio is ≤ 0.25.

Take KRGM: the enrichment ratio was ≤ 0.25.

Turning to FYFR, the enrichment ratio is ≤ 0.25.

As for YRKE, the enrichment ratio is ≤ 0.25.

For SEII, the enrichment ratio was determined as 8.85.

Consider IIKV, for which the enrichment ratio is ≤ 0.25.

On to AVMV, for which the enrichment ratio was determined as 2.94.

For the variant ADKI, the enrichment ratio is ≤ 0.25.

As to LIRW, the enrichment ratio is ≤ 0.25.

As to DGCN, the enrichment ratio was ≤ 0.25.

The record behind these values is a collection of fitness landscapes (doi:10.1126/science.1257360).
